Measurements as given in article PMC11995724, “Antibiotic target discovery by integrated phenotypic and activity-based profiling of electrophilic fragments” (Cell chemical biology, 2025).
Hit rate of the full screen: of about 3,200 compounds, about 110 (3.4%) showed an effect of 50% or more. This is one part of the list.

test system: T1, V. cholerae SAD30; design: species or system S. aureus MSSA476 (TSB) or V. cholerae SAD30 (LB); 384-well bacterial growth screen at 25 uM, OD600 relative to DMSO control; settings: relative growth, OD600, LB; 25 µM; inhibitor
T1 construct: SAD30

SMILES	% of control remaining
N#CC(=Cc1ccncc1)C(=O)Nc1ccccc1Cl [8-N17, N-(2-chlorophenyl)-2-cyano-3-(pyridin-4-yl)prop-2-enamide]	76.7505%
C=CC(=O)N1CC(n2nc(C)cc2C)C1 [3-B04, 1-[3-(3,5-dimethyl-1H-pyrazol-1-yl)azetidin-1-yl]prop-2-en-1-one]	113.968%
COc1ccc(C2=NN(C(=O)CCl)C(c3ccco3)C2)cc1 (stereo not drawn) [4-N19, 2-chloro-1-[5-(furan-2-yl)-3-(4-methoxyphenyl)-4,5-dihydro-1H-pyrazol-1-yl]ethan-1-one]	106.103%
C=CC(=O)NCC12CC3CC(CC(C3)C1)C2 [1-F17, N-[(adamantan-1-yl)methyl]prop-2-enamide]	83.4081%
COc1cc(S(=O)(=O)N2CCOCC2)ccc1NC(=O)CCl [6-L12, 2-chloro-N-[2-methoxy-4-(morpholine-4-sulfonyl)phenyl]acetamide]	88.8805%
Cc1csc(C2(NC(=O)CCl)CCOCC2)n1 [7-J03, 2-chloro-N-[4-(4-methyl-1,3-thiazol-2-yl)oxan-4-yl]acetamide]	96.4811%
C/C(O)=C(\C#N)C(=O)Nc1ccc(-c2ccccc2Cl)cc1 [9-P22, (2Z)-N-{2'-chloro-[1,1'-biphenyl]-4-yl}-2-cyano-3-hydroxybut-2-enamide]	88.8511%
CC(Cl)C(=O)N1CCc2sccc2C1c1cccs1 (stereo not drawn) [7-K07, 2-chloro-1-[4-(thiophen-2-yl)-4H,5H,6H,7H-thieno[3,2-c]pyridin-5-yl]propan-1-one]	54.0558%
CCCN(Cc1ccc(C)cc1)C(=O)CCl [5-J09, 2-chloro-N-[(4-methylphenyl)methyl]-N-propylacetamide]	94.9879%
COc1cccc2c1CCC2(CO)NC(=O)CCl (stereo not drawn) [5-C20, 2-chloro-N-[1-(hydroxymethyl)-4-methoxy-2,3-dihydro-1H-inden-1-yl]acetamide]	102.553%
CC(Cl)C(=O)N(C)C1CCCCC1 (stereo not drawn) [5-J04, 2-chloro-N-cyclohexyl-N-methylpropanamide]	102.89%
O=C(CCl)N(Cc1ccccc1)Cc1cc2n(n1)CCCC2 [5-L03, N-benzyl-2-chloro-N-({4H,5H,6H,7H-pyrazolo[1,5-a]pyridin-2-yl}methyl)acetamide]	109.278%
O=C(CCl)Nc1ccc(S(=O)(=O)c2ccc(F)cc2)cc1 [6-O14, 2-chloro-N-[4-(4-fluorobenzenesulfonyl)phenyl]acetamide]	92.9756%
C=CC(=O)N(C)CC(=O)N1CCCC(CC(N)=O)CC1 (stereo not drawn) [3-C20, N-{2-[4-(carbamoylmethyl)azepan-1-yl]-2-oxoethyl}-N-methylprop-2-enamide]	112.909%
O=C(CCl)NCc1ccc(C(=O)N2CCCC2)cc1 [6-G04, 2-chloro-N-{[4-(pyrrolidine-1-carbonyl)phenyl]methyl}acetamide]	99.3459%
C=CC(=O)N1CCCCC1c1noc(C2CC2)n1 (stereo not drawn) [3-K12, 1-[2-(5-cyclopropyl-1,2,4-oxadiazol-3-yl)piperidin-1-yl]prop-2-en-1-one]	86.4437%
Cn1cc(C=C(C#N)C(=O)NCc2ccco2)cn1 [8-L06, 2-cyano-N-[(furan-2-yl)methyl]-3-(1-methyl-1H-pyrazol-4-yl)prop-2-enamide]	71.584%
CC(Cl)C(=O)N1CCNC(=O)C1Cc1nc2ccccc2o1 (stereo not drawn) [6-P03, 3-[(1,3-benzoxazol-2-yl)methyl]-4-(2-chloropropanoyl)piperazin-2-one]	106.626%
O=C(CCl)N1N=C(C=Cc2ccco2)CC1c1ccco1 (stereo not drawn) [4-M22, 2-chloro-1-[5-(furan-2-yl)-3-[2-(furan-2-yl)ethenyl]-4,5-dihydro-1H-pyrazol-1-yl]ethan-1-one]	110.071%
N#CC(=Cc1cc([N+](=O)[O-])ccc1Cl)C(N)=O [8-F21, 3-(2-chloro-5-nitrophenyl)-2-cyanoprop-2-enamide]	76.0707%
O=C(CCl)N(Cc1ccccc1)CC(F)(F)F [4-B20, N-benzyl-2-chloro-N-(2,2,2-trifluoroethyl)acetamide]	107.138%
C=CC(=O)Nc1ccc(C(=O)N2CCCCC2CS(C)(=O)=O)cc1 (stereo not drawn) [2-N18, N-{4-[2-(methanesulfonylmethyl)piperidine-1-carbonyl]phenyl}prop-2-enamide]	91.1223%
Cc1ncccc1OCC1CCCN1C(=O)C(C)Cl (stereo not drawn) [7-C18, 2-chloro-1-(2-{[(2-methylpyridin-3-yl)oxy]methyl}pyrrolidin-1-yl)propan-1-one]	75.0702%

SMILES	% of control remaining
C=CC(=O)Nc1cc(C(=O)O)ccc1O [1-A12, 4-hydroxy-3-(prop-2-enamido)benzoic acid]	88.4903%
N#CC(=Cc1ccc(C#N)cc1)C(=O)Nc1cccc(Cl)c1Cl [8-J05, 2-cyano-3-(4-cyanophenyl)-N-(2,3-dichlorophenyl)prop-2-enamide]	72.9436%
C=CC(=O)N(Cc1c(C)nn(CC)c1C)c1ccc2c(c1)COC2 [2-G13, N-(1,3-dihydro-2-benzofuran-5-yl)-N-[(1-ethyl-3,5-dimethyl-1H-pyrazol-4-yl)methyl]prop-2-enamide]	73.058%
C=CC(=O)N(C)Cc1cn(C)nc1C(C)C [3-F15, N-methyl-N-{[1-methyl-3-(propan-2-yl)-1H-pyrazol-4-yl]methyl}prop-2-enamide]	93.3248%
N#CC(=Cc1ccc(C#N)cc1)C(=O)N1CCCC1 [9-P21, 4-[2-cyano-2-(pyrrolidine-1-carbonyl)eth-1-en-1-yl]benzonitrile]	93.8817%
C=CC(=O)NCc1coc(-c2cccs2)n1 [1-C07, N-{[2-(thiophen-2-yl)-1,3-oxazol-4-yl]methyl}prop-2-enamide]	94.1704%
Cc1ccc(NC(=O)C(C#N)=Cc2ccc(C)s2)c(C)c1 [8-D09, 2-cyano-N-(2,4-dimethylphenyl)-3-(5-methylthiophen-2-yl)prop-2-enamide]	79.1978%
CC(c1cccs1)N(C)C(=O)CCl (stereo not drawn) [6-M21, 2-chloro-N-methyl-N-[1-(thiophen-2-yl)ethyl]acetamide]	98.1325%
Cc1cccc2nc(C3CCN(C(=O)C(C)Cl)CC3)oc12 (stereo not drawn) [7-M12, 2-chloro-1-[4-(7-methyl-1,3-benzoxazol-2-yl)piperidin-1-yl]propan-1-one]	63.8361%
O=C(CCl)N1CCC(OCc2ccccc2)CC1 [4-H19, 1-[4-(benzyloxy)piperidin-1-yl]-2-chloroethan-1-one]	95.0615%
CC(Oc1cccc(F)c1F)C(=O)N1CCN(C(=O)CCl)CC1 (stereo not drawn) [5-H03, 1-[4-(2-chloroacetyl)piperazin-1-yl]-2-(2,3-difluorophenoxy)propan-1-one]	112.136%
COCC(C)NC(=O)C(C#N)=Cc1ccc(F)c(C)c1 (stereo not drawn) [9-H09, 2-cyano-3-(4-fluoro-3-methylphenyl)-N-(1-methoxypropan-2-yl)prop-2-enamide]	91.2984%
Cc1ccc(-n2c(C)cc(C(=O)CCl)c2C)cc1C [10-B14, 2-chloro-1-[1-(3,4-dimethylphenyl)-2,5-dimethyl-1H-pyrrol-3-yl]ethan-1-one]	97.5648%
C=CC(=O)NCCC(=O)N1CCCC1c1cc(C)on1 (stereo not drawn) [2-C12, N-{3-[2-(5-methyl-1,2-oxazol-3-yl)pyrrolidin-1-yl]-3-oxopropyl}prop-2-enamide]	89.1151%
C=CC(=O)N1CCC(n2ccc(C)n2)CC1 [2-A21, 1-[4-(3-methyl-1H-pyrazol-1-yl)piperidin-1-yl]prop-2-en-1-one]	103.165%
C=CC(=O)NCc1conc1C1CCC1 [1-N06, N-[(3-cyclobutyl-1,2-oxazol-4-yl)methyl]prop-2-enamide]	107.704%
CC(Cl)C(=O)N(C)Cc1cn(C)nc1C(F)(F)F (stereo not drawn) [7-M04, 2-chloro-N-methyl-N-{[1-methyl-3-(trifluoromethyl)-1H-pyrazol-4-yl]methyl}propanamide]	86.4365%
CC(Cl)C(=O)NCc1ccco1 (stereo not drawn) [5-B09, 2-chloro-N-[(furan-2-yl)methyl]propanamide]	92.298%
O=C(CCl)Nc1cc(C(=O)O)cc(C(=O)O)c1 [4-B04, 5-(2-chloroacetamido)benzene-1,3-dicarboxylic acid]	102.998%
C=CC(=O)NCc1ncccc1S(C)(=O)=O [2-D21, N-[(3-methanesulfonylpyridin-2-yl)methyl]prop-2-enamide]	102.084%
CCN(CC)S(=O)(=O)c1cccc(NC(=O)CCl)c1 [4-M07, 2-chloro-N-[3-(diethylsulfamoyl)phenyl]acetamide]	105.931%
C=CC(=O)N1CCC(n2cc(C(N)=O)nn2)C1 (stereo not drawn) [1-C18, 1-[1-(prop-2-enoyl)pyrrolidin-3-yl]-1H-1,2,3-triazole-4-carboxamide]	87.145%
